Data taken from the BET-seq Pho4 binding data (Le et al. 2018).
Some of the results follow. The energies were worked out here from pooled read counts, against the library average; single values are noisy.

What follows are sequences tested against T1, Pho4 (S. cerevisiae) (UniProt P07270) (assay: relative binding free energy (BET-seq); higher = weaker binding). Conditions: reference: library average.
T1 sequence: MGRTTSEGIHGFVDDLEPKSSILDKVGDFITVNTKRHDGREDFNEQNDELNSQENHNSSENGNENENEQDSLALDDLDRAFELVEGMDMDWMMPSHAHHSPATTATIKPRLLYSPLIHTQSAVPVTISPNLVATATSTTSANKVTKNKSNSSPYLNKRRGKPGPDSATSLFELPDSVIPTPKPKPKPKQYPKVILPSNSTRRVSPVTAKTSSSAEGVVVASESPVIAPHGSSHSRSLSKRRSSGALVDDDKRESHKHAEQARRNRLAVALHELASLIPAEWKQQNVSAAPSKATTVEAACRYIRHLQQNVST

Sequence	relative binding free energy
ACGGGCACGTGGCCGG	-0.19 kcal/mol
TGAGGCACGTGCGGCG	-0.2 kcal/mol
CGTGTCACGTGGTGCG	-0.08 kcal/mol
TGTCGCACGTGCATGG	-0.17 kcal/mol
ATATACACGTGTGAAT	0.12 kcal/mol
TGCTTCACGTGAGTAG	0.35 kcal/mol
TAATGCACGTGGGTTA	-0.28 kcal/mol
GGACGCACGTGGGTTA	-0.11 kcal/mol
GGAGGCACGTGAGTAG	0.06 kcal/mol
CATTCCACGTGGTGTG	0.08 kcal/mol
TAAGCCACGTGGTGTT	-0.18 kcal/mol
TTTCACACGTGAGGTT	0.21 kcal/mol
GGGACCACGTGTGGGC	-0.01 kcal/mol
GCATGCACGTGGGTTG	-0.08 kcal/mol
GTTGGCACGTGGTCGC	-0.27 kcal/mol
ACTTGCACGTGGGGTT	-0.08 kcal/mol
TTTTTCACGTGGTCGT	0.22 kcal/mol
GCGGGCACGTGTCTTG	-0.07 kcal/mol
GTTTACACGTGGATTG	0 kcal/mol
GTTCACACGTGTTTTA	0.03 kcal/mol
TTGATCACGTGCCGGG	0.02 kcal/mol
GATGTCACGTGATGTG	0.35 kcal/mol
TCGTTCACGTGTATGT	0.11 kcal/mol
GTGCGCACGTGGATTT	-0.04 kcal/mol
ATCATCACGTGGGTAT	0.02 kcal/mol
CCGTGCACGTGGCGTG	0 kcal/mol

Sequence	relative binding free energy
CGTAACACGTGGTTGT	-0.1 kcal/mol
TATCTCACGTGGGATG	0.13 kcal/mol
GGATACACGTGTTAAT	0.32 kcal/mol
GGTTCCACGTGGATTA	0.22 kcal/mol
GGGCTCACGTGGGCTT	0.2 kcal/mol
ATGGTCACGTGTTGCG	0.02 kcal/mol
ATTTACACGTGTTATA	0.08 kcal/mol
AAAATCACGTGTCGTT	0.18 kcal/mol
CTTATCACGTGGTATG	0.05 kcal/mol
TGACACACGTGATGGT	0.13 kcal/mol
GTTTGCACGTGGAAGA	0.09 kcal/mol
CTCTTCACGTGGGGGA	0.12 kcal/mol
TGATGCACGTGAAGCG	0.2 kcal/mol
GTAAGCACGTGGTTAT	-0.19 kcal/mol
TGTTGCACGTGTACAG	0.05 kcal/mol
GGTGACACGTGTGGAT	0.22 kcal/mol
TTTATCACGTGACATG	0.23 kcal/mol
TAGAACACGTGTTTTG	-0.09 kcal/mol
GTTATCACGTGCGTAG	0.12 kcal/mol
CTTTACACGTGATTTT	0.16 kcal/mol
CGTGTCACGTGGTAGG	0.08 kcal/mol
CTTTTCACGTGAGGGT	0.33 kcal/mol
GAATTCACGTGGCTGG	0.22 kcal/mol
TGTACCACGTGTGGGC	0.01 kcal/mol
GGTGCCACGTGATAGG	0.04 kcal/mol
TGAGGCACGTGGAGTT	-0.08 kcal/mol

Sequence	relative binding free energy
GGTCTCACGTGTTTAA	0.38 kcal/mol
ATGTTCACGTGCGGCG	0.15 kcal/mol
ATGGTCACGTGGCGCG	-0.04 kcal/mol
TTTAACACGTGCGATG	0.04 kcal/mol
AAATGCACGTGATTGA	0.08 kcal/mol
ATCGTCACGTGTTGTT	0.05 kcal/mol
AGGTGCACGTGGCGTA	-0.24 kcal/mol
GTGCACACGTGGGCGT	-0.11 kcal/mol
GTGGGCACGTGCTGAG	-0.09 kcal/mol
ATTTTCACGTGAGTTC	0.33 kcal/mol
TAGCGCACGTGTGGGA	-0.04 kcal/mol
TCAGGCACGTGTGGTT	0.07 kcal/mol
AGAGACACGTGGCGTG	-0.13 kcal/mol
AGGGCCACGTGGGATT	-0.11 kcal/mol
GTATACACGTGGGAAT	0.03 kcal/mol
TTGACCACGTGGGGAT	-0.2 kcal/mol
AGTTGCACGTGTGGGT	0 kcal/mol
CTTAGCACGTGTATGG	-0.11 kcal/mol
ATGTGCACGTGTATTG	-0.08 kcal/mol
GGACTCACGTGGGGGT	-0.02 kcal/mol
TGCGTCACGTGATGTA	0.21 kcal/mol
ACGTTCACGTGGGGGT	0.12 kcal/mol
TTGTACACGTGATGCT	0.17 kcal/mol
GGGTGCACGTGTCATG	-0.07 kcal/mol
TGTTGCACGTGGTTAT	-0.05 kcal/mol
AAGTGCACGTGGTTGT	0 kcal/mol

Sequence	relative binding free energy
GTTTGCACGTGGCGTC	-0.06 kcal/mol
ATGTACACGTGAGGTT	0.22 kcal/mol
TTTGTCACGTGAAGCT	0.25 kcal/mol
CGGACCACGTGAGGGG	0.15 kcal/mol
AGTTGCACGTGGCGGG	-0.02 kcal/mol
AAATGCACGTGTTGCA	0.16 kcal/mol
AACCGCACGTGGGGGT	-0.22 kcal/mol
ATGGTCACGTGCATCG	0.11 kcal/mol
GGACGCACGTGTGGTT	-0.14 kcal/mol
GTAGACACGTGGGGCT	-0.02 kcal/mol
ACATACACGTGGGGGT	-0.05 kcal/mol
TTAAACACGTGTGGAG	0.06 kcal/mol
ATCGGCACGTGAGGAG	0.05 kcal/mol
GAGGTCACGTGGTGTT	0.18 kcal/mol
GTATGCACGTGTGATT	0.04 kcal/mol
TGGCCCACGTGGTGGT	-0.2 kcal/mol
TGGTCCACGTGAGTAG	0.16 kcal/mol
TGGAACACGTGGCTTT	-0.13 kcal/mol
AGGAGCACGTGCGCTT	-0.01 kcal/mol
AGTTGCACGTGTGGTA	0.07 kcal/mol
TGTATCACGTGTGTAG	0.1 kcal/mol
TGTGACACGTGGTACG	-0.16 kcal/mol
TGCATCACGTGTGGAG	0.09 kcal/mol
TTCTGCACGTGGTATA	-0.17 kcal/mol
TTGGTCACGTGCTGAT	0.11 kcal/mol
ATTACCACGTGGTGTG	-0.19 kcal/mol

Sequence	relative binding free energy
GAAATCACGTGCGTGG	0.17 kcal/mol
AGGTGCACGTGAAGCT	0.29 kcal/mol
TGTTTCACGTGACGGC	0.47 kcal/mol
GGTCCCACGTGTGTTG	0.09 kcal/mol
GTTGTCACGTGTGAGA	0.34 kcal/mol
TAGTGCACGTGACGGT	0.11 kcal/mol
GGACGCACGTGGTTTG	-0.12 kcal/mol
GGTGGCACGTGGAAAG	0 kcal/mol
TGGGACACGTGGGGAC	-0.01 kcal/mol
TGCTGCACGTGTGGTA	-0.06 kcal/mol
GATATCACGTGGGTGG	0.01 kcal/mol
GTGATCACGTGGGGAT	0.09 kcal/mol
CAGGTCACGTGAAGGG	0.27 kcal/mol
TCTGGCACGTGGAGAG	-0.14 kcal/mol
TGGTACACGTGCAGGA	0.03 kcal/mol
AGGAGCACGTGAAGGA	0.18 kcal/mol
GTACGCACGTGAGGGC	0.3 kcal/mol
TTTAACACGTGGGTCG	-0.12 kcal/mol
AGGCGCACGTGAGGCG	0.16 kcal/mol
TAATACACGTGGTGGG	0.03 kcal/mol
AGTATCACGTGGATGG	0.18 kcal/mol
TCGGTCACGTGTTTAG	0.09 kcal/mol
GGGGGCACGTGTTCTA	-0.05 kcal/mol
ATTAGCACGTGTTGGA	-0.05 kcal/mol
CGGTACACGTGTGGAT	0.14 kcal/mol
AGATACACGTGAATGG	0.24 kcal/mol

Sequence	relative binding free energy
TTAGTCACGTGTCTAG	0.13 kcal/mol
ACGTTCACGTGGGTGT	0.09 kcal/mol
TGTCACACGTGTTAGT	0.01 kcal/mol
GGCACCACGTGGCGGG	0.04 kcal/mol
CGGGGCACGTGGTATG	-0.22 kcal/mol
CTGATCACGTGGTGTG	0.13 kcal/mol
AATGTCACGTGATAGG	0.15 kcal/mol
AAACGCACGTGGGTGG	-0.36 kcal/mol
TTAGGCACGTGTTTCG	0 kcal/mol
ATTTTCACGTGTGCGT	0.31 kcal/mol
AAGGGCACGTGTAGGG	-0.08 kcal/mol
TATGGCACGTGCTAGT	-0.11 kcal/mol
GTTGACACGTGATTTG	0.13 kcal/mol
TATATCACGTGTATGA	0.19 kcal/mol
GGACGCACGTGTGATG	0.01 kcal/mol
AGATACACGTGTTATG	-0.09 kcal/mol
GCTTTCACGTGTTCGT	0.4 kcal/mol
GGGTTCACGTGTGTGT	0.25 kcal/mol
AGCTACACGTGGGGGG	-0.01 kcal/mol
ATTAACACGTGTGGCA	0.04 kcal/mol
AGTGACACGTGTTTTC	0.15 kcal/mol
AGACGCACGTGAAGGT	0.4 kcal/mol
TGCTTCACGTGAAGTG	0.24 kcal/mol
GTTAGCACGTGGGGCG	-0.13 kcal/mol
TGAATCACGTGTGGGT	0.27 kcal/mol
TGGGCCACGTGATTTT	0.23 kcal/mol

Sequence	relative binding free energy
AATGTCACGTGGGGAG	0.02 kcal/mol
AGTATCACGTGCTGGG	0.06 kcal/mol
GTAGACACGTGTTTAG	0.12 kcal/mol
GGGTGCACGTGCTGTG	-0.03 kcal/mol
GGAAGCACGTGGATGG	0 kcal/mol
TAGTTCACGTGAAGTT	0.51 kcal/mol
TTATACACGTGTCATT	0 kcal/mol
AAAAACACGTGGTTTG	-0.07 kcal/mol
AGTAGCACGTGGAAAG	-0.02 kcal/mol
CGTTACACGTGAGTTA	0.34 kcal/mol
CGATTCACGTGTTGGC	0.34 kcal/mol
AAGGACACGTGTTAGT	0.03 kcal/mol
TTTGGCACGTGTTTTG	0.06 kcal/mol
TAGGTCACGTGTACAG	0.06 kcal/mol
TTAATCACGTGCGTAT	0.07 kcal/mol
AGGGGCACGTGCTCTG	-0.2 kcal/mol
TGTGTCACGTGTTATT	0.06 kcal/mol
TCCGTCACGTGGCGGT	0.08 kcal/mol
TGTATCACGTGGGGTG	-0.01 kcal/mol
AGAATCACGTGTGGTG	0.21 kcal/mol
AGATGCACGTGTATGT	-0.06 kcal/mol
TGAAGCACGTGGGACG	-0.23 kcal/mol
GCACGCACGTGGGAGG	-0.13 kcal/mol
TTTCGCACGTGGTGAC	0.15 kcal/mol
GTTTGCACGTGATTGT	0.13 kcal/mol
ATCGGCACGTGGGACA	0.01 kcal/mol

Sequence	relative binding free energy
GGGTCCACGTGATGGC	0.22 kcal/mol
AAGGTCACGTGTGGGG	0.19 kcal/mol
GATTACACGTGTGGCG	0.29 kcal/mol
GGTTACACGTGAATGG	0.4 kcal/mol
TGTTGCACGTGTTGGC	0.07 kcal/mol
CTTATCACGTGGAGGG	0.16 kcal/mol
TTTTTCACGTGAGATT	0.41 kcal/mol
CGTGGCACGTGTTACA	-0.02 kcal/mol
GGTGGCACGTGTGTGA	0.03 kcal/mol
GTTGCCACGTGGGTCG	-0.22 kcal/mol
TGCGACACGTGATTGT	0.22 kcal/mol
CTGGTCACGTGAGGAG	0.3 kcal/mol
ATTATCACGTGGGGAC	0.06 kcal/mol
TCTGTCACGTGAGAGG	0.23 kcal/mol
CAGTTCACGTGATTTG	0.35 kcal/mol
ATTGTCACGTGTAAAG	0.05 kcal/mol
GCTGGCACGTGGCTTG	-0.16 kcal/mol
AGAAACACGTGGGGCG	0 kcal/mol
GTTTACACGTGTCTAA	0.23 kcal/mol
AAAATCACGTGTGAGG	0.16 kcal/mol
TTTATCACGTGTACGT	0.2 kcal/mol
AGGTCCACGTGTGAGG	-0.01 kcal/mol
TAGAACACGTGTAGGG	0.11 kcal/mol
TGTTTCACGTGTTCTA	0.23 kcal/mol
GGCATCACGTGGTGAG	0.05 kcal/mol
GTTTTCACGTGTGGAC	0.42 kcal/mol

Sequence	relative binding free energy
ACTTACACGTGGGGGG	0.1 kcal/mol
GGGTGCACGTGCTTGG	-0.1 kcal/mol
CTTTACACGTGAAGGT	0.2 kcal/mol
CGGGGCACGTGTGGGT	-0.02 kcal/mol
GGTTACACGTGATAGT	0.27 kcal/mol
ATACTCACGTGGGAGT	0.05 kcal/mol
TCGGGCACGTGATTGT	-0.04 kcal/mol
GGGTTCACGTGAGGAG	0.48 kcal/mol
TTTAACACGTGGTAGT	-0.05 kcal/mol
GGATGCACGTGGGGCT	-0.03 kcal/mol
GCGGTCACGTGCGAGG	0.09 kcal/mol
CGGTTCACGTGTGGTA	0.29 kcal/mol
GGATGCACGTGTATTA	-0.05 kcal/mol
TGTTTCACGTGTTGAT	0.25 kcal/mol
TGTTGCACGTGGTTAA	-0.07 kcal/mol
AAATGCACGTGGGCTG	-0.25 kcal/mol
TTTCACACGTGGTCTT	-0.01 kcal/mol
TTTTGCACGTGTACGT	-0.06 kcal/mol
TGATGCACGTGGGACT	-0.05 kcal/mol
CGGTGCACGTGGAGTC	-0.05 kcal/mol
TCTGTCACGTGCGTTT	0.13 kcal/mol
GTTTTCACGTGCGGTT	0.28 kcal/mol
